Hit rate of the full screen: of about 310,000 compounds, about 2,200 (0.71%) showed an effect of 50% or more. The effect is printed as a negative number. The list shows a part of the results.

The assay deals with human ether-à-go-go-related gene (hERG) potassium channel (human, UniProt Q12809). In words: primary screen, population patch clamp on CHO cells stably expressing hERG.
human ether-à-go-go-related gene (hERG) potassium channel, sequence (Q12809 whole entry, looked up): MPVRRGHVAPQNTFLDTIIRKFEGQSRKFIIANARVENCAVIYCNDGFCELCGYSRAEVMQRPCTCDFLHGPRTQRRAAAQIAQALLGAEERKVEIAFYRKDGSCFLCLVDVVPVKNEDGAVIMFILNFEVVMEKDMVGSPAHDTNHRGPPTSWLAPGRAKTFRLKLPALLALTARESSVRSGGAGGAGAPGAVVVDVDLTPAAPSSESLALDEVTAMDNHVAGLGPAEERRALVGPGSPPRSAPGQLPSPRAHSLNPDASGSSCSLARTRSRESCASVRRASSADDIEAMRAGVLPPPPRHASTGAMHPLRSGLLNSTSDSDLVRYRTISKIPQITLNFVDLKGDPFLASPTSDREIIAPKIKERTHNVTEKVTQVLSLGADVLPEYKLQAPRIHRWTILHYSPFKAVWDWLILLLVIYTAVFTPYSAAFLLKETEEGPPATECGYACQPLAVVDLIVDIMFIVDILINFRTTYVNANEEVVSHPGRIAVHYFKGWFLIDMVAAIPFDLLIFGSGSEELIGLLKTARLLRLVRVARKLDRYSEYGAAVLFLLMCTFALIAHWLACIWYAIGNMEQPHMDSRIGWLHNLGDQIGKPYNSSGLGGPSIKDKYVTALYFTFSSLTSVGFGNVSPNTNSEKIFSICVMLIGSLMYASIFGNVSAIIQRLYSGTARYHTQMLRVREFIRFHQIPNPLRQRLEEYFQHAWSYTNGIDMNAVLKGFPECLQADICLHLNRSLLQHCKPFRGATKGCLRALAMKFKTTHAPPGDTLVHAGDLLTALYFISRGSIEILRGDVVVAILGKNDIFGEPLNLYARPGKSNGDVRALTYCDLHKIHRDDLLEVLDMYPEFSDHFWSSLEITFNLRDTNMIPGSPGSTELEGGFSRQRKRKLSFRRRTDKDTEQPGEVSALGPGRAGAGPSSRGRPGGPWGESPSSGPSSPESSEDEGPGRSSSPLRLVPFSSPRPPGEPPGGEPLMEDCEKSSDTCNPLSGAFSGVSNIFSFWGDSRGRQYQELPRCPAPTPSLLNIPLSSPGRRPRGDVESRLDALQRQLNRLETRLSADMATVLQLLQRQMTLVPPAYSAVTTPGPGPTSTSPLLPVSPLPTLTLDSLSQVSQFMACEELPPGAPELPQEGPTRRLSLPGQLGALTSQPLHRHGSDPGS
Regarding `O=C(c1ccccc1F)N1CCN(Cc2nc3sc4c(c3c(=O)[nH]2)CCCC4)CC1`, the “hERG current change (%, negative = inhibition) at 1uM” value was -34.7%.
For the compound `CCOCCc1nnc(NC(=O)Cc2ccc(Br)cc2)s1`, the “hERG current change (%, negative = inhibition) at 1uM” value is -6.64%.
For `O=C(c1ccc(NS(=O)(=O)c2cccs2)cc1)N1CCCCC1`, the “hERG current change (%, negative = inhibition) at 1uM” value is recorded as 5.03%.
As to `O=C1/C(=C/c2ccncc2)SC(=S)N1Cc1ccccc1`, the “hERG current change (%, negative = inhibition) at 1uM” value is reported as -3.95%.
For the compound `Cc1c(NP(=O)(Oc2ccccc2F)Oc2ccccc2F)c(=O)n(-c2ccccc2)n1C`, the “hERG current change (%, negative = inhibition) at 1uM” value came out at 5.11%.
To `NNC(=O)C1SCCN1S(=O)(=O)c1ccc(Cl)cc1` (centres unmarked) belongs 14.7%.
To `CN(C)S(=O)(=O)c1ccc(C(=O)Nc2ccn(C)n2)cc1` belongs 8.2%; to `COc1ccc(CNC(=O)C(=O)NCCC2CCCCN2S(=O)(=O)c2cccs2)cc1` (centres unmarked), 11.7%.
Then `CCOc1ccc(N2C(=O)CC(Cc3cc(C)cc(C)c3)C2=O)cc1` (centres unmarked), with 15.2%; and `O=C(O)Cc1ccc(O)c(F)c1`, with 4.7%.
For `Cc1ccc(NC(=O)Cn2cnc3c(nnn3Cc3ccc(F)cc3)c2=O)cc1`, the “hERG current change (%, negative = inhibition) at 1uM” value came to 10.9%.
`CCn1c(O)c(C#N)c(C)cc1=O`: the “hERG current change (%, negative = inhibition) at 1uM” value came to 17.9%.
To `CCCNC(=O)c1ccc(N2CCC3(CC2)CC(c2ccc(Cl)cc2)=NO3)c([N+](=O)[O-])c1` belongs -10.6%; to `Nc1cccc(N2C(=O)c3cccc4c(N)ccc(c34)C2=O)c1`, 7.7%.
In the case of `COc1ccc(OC)c(S(=O)(=O)NCc2cccnc2)c1`, the “hERG current change (%, negative = inhibition) at 1uM” value came out at 2.5%.
For `CCOC(=O)C1CCCN(S(=O)(=O)c2c(C(=O)N3CCCCC3)c(C)n(C)c2C)C1` (centres unmarked), the “hERG current change (%, negative = inhibition) at 1uM” value was found to be 12.6%.
`COc1ccc(OC)c(NC(=O)COC(=O)CCC2CCCC2)c1`: the “hERG current change (%, negative = inhibition) at 1uM” value is reported as 6.85%.
On to `CCOC(=O)C(=O)NCC(c1cccs1)S(=O)(=O)c1ccc(C)cc1` (centres unmarked), for which the “hERG current change (%, negative = inhibition) at 1uM” value is recorded as -11%.
For the compound `COc1ccc(OCc2cc(C(=O)NC3CCc4ccccc43)no2)c(Cl)c1` (centres unmarked), the “hERG current change (%, negative = inhibition) at 1uM” value is given as 12.6%.
Consider `COc1cccc(-n2cnnc2SC(C)C(=O)NC2CCCC2)c1` (centres unmarked), for which the “hERG current change (%, negative = inhibition) at 1uM” value amounted to 1.93%.
`Cc1ccc(Nc2nc(=O)c3cc([N+](=O)[O-])ccc3s2)cc1`: the “hERG current change (%, negative = inhibition) at 1uM” value came out at 16.6%.
As for `COC(=O)CSc1nc2sc3c(c2c(=O)n1-c1ccccc1)CCN(C)C3`, the “hERG current change (%, negative = inhibition) at 1uM” value amounted to 8.23%.
To `Cn1ccsc1=NC(=O)c1ccc(S(C)(=O)=O)c([N+](=O)[O-])c1` belongs 19.8%.
In the case of `Cc1ccc(-c2cc(-c3ccccc3)cc(-c3ccccc3)[n+]2-c2ccccc2C(=O)O)cc1.[O-][Cl+3]([O-])([O-])[O-]`, the “hERG current change (%, negative = inhibition) at 1uM” value is on record as 1.86%.
Turning to `CCOC(=O)c1ccccc1NC(=O)N1CCn2c(C)ccc2C1CC` (centres unmarked), the “hERG current change (%, negative = inhibition) at 1uM” value was determined as 9.11%.
Turning to `Cc1cccc(C)c1NC(=O)C1(NC(=O)C2CCCN2C(=O)OC(C)(C)C)CCCCC1` (centres unmarked), the “hERG current change (%, negative = inhibition) at 1uM” value was -11.8%.
As to `Cc1ccc(S(=O)(=O)Nc2ccc(=O)n(Cc3ccc(Cl)c(Cl)c3)c2)cc1`, the “hERG current change (%, negative = inhibition) at 1uM” value is recorded as -3.76%.
As to `CCN(CC1COc2ccccc2O1)C(=S)Nc1ccc(F)cc1` (centres unmarked), the “hERG current change (%, negative = inhibition) at 1uM” value was 6.86%.
Then `CC(=O)N(C)c1ccc(OCC(O)CN(c2ccccc2C)S(=O)(=O)c2ccc(C)cc2)cc1` (centres unmarked), with 12.5%.
With `C=CCN(C(=O)c1csnn1)C(C(=O)NCc1ccccc1)c1cccs1` (centres unmarked), the “hERG current change (%, negative = inhibition) at 1uM” value amounted to 6.72%.
For `Oc1ccc[n+](/C=C\c2ccccc2)c1.[Br-]`, the “hERG current change (%, negative = inhibition) at 1uM” value was -0.393%.
`CN(C)S(=O)(=O)N1CCN(CC(O)COc2ccc(C(=O)c3ccccc3)cc2)CC1` (centres unmarked): the “hERG current change (%, negative = inhibition) at 1uM” value is -18.7%.
As to `O=c1c(C(c2nnnn2C2CCCCC2)N2CCCCC2)coc2ccc(Cl)cc12` (centres unmarked), the “hERG current change (%, negative = inhibition) at 1uM” value was found to be 5.59%.
To `Cc1cc(NC(=O)CSc2c3c(nc4ccccc24)CCC3)no1` belongs 4.4%; to `CCOC(=O)c1c(CN(CC)CC)n(-c2ccccc2)c2ccc(O)cc12`, -45.6%; to `CCCCCCn1cc(C(=O)O)c(=O)c2cc(F)c(N3CCN(C)CC3)cc21`, 10.8%.
For `Cc1ccc(Cn2c(N3CCCCCC3)nc3c2c(=O)[nH]c(=O)n3C)cc1`, the “hERG current change (%, negative = inhibition) at 1uM” value was 2.45%.
To `CCc1nn(C(C)C(=O)NCc2ccc(Cl)cc2)c(=O)c2cc3occc3n12` (centres unmarked) belongs -5.89%; to `CCOC(=O)N1CCC(Nc2nc(OC)nc(OC)n2)CC1`, 8.42%; to `O=C(CN1CCN(c2ccccn2)CC1)NC1CCCCC1`, 3.79%.
Then `CSCC(=O)NC1CCCN(C2Cc3ccccc3C2)C1` (centres unmarked), with 8.45%; and `Cl.O=C(/C=C/c1ccc(Br)o1)NCCCN1CCOCC1`, with 7.21%; and `CCOc1ccccc1NC(=O)Nc1ccc(OC)nc1`, with 10%.
As for `CCNC(=S)N1CCC(NC(=O)c2ccco2)CC1`, the “hERG current change (%, negative = inhibition) at 1uM” value came out at 9.57%.
With `CCn1nc(C)c(Oc2ccccc2O)c1C`, the “hERG current change (%, negative = inhibition) at 1uM” value turned out to be 12.6%.
As to `Cc1ccc(S(=O)(=O)N/N=c2\sc3ccccc3n2C)cc1`, the “hERG current change (%, negative = inhibition) at 1uM” value amounted to 2.88%.
Regarding `CN(CC1CCOCC1)C(=O)CC1C(=O)NCCN1Cc1ccc(F)c(F)c1` (centres unmarked), the “hERG current change (%, negative = inhibition) at 1uM” value was 12.5%.
As for `CC(C)C(NC(=O)c1ccccc1)C(=O)N/N=C\c1ccco1` (centres unmarked), the “hERG current change (%, negative = inhibition) at 1uM” value came to 16.7%.
To `O=C(NC(=S)N1CCN(C(c2ccccc2)c2ccccc2)CC1)c1ccc(S(=O)(=O)N2CCOCC2)cc1` belongs -3.63%; to `c1ccc(-c2nccc(-c3ccco3)n2)nc1`, 1.91%; to `Cc1cccc(-c2nnc3sc(-c4ccccc4C)nn23)c1`, 11.6%.
To `O=C(c1cc(=O)c2ccccc2o1)N1CCN(c2cccc(Cl)c2)CC1` belongs -9.23%; to `COc1ccccc1-n1c(=O)c2c3c(sc2n2c(=S)[nH]nc12)CCC3`, 8.1%; to `COc1ccc(C(C)=O)cc1COC(=O)c1c(C)nn(-c2ccccc2)c1C`, 8.11%.
Regarding `CCCC(c1nnnn1CC(=O)OCC)N(Cc1cc2ccc(C)cc2[nH]c1=O)C1CCCC1` (centres unmarked), the “hERG current change (%, negative = inhibition) at 1uM” value was determined as 9.02%.
In the case of `Cc1cc(=O)oc2cc(OC(C)C(=O)NCCCn3ccnc3)ccc12` (centres unmarked), the “hERG current change (%, negative = inhibition) at 1uM” value came out at 11.7%.
With `CN(CC(=O)Nc1cccc(F)c1)C(=O)C1=COCCO1`, the “hERG current change (%, negative = inhibition) at 1uM” value stood at 12.5%.
Then `Cc1nnsc1S(=O)(=O)c1ccccc1`, with 13%; and `O=c1[nH]c(/C=C\c2ccc(O)c(Cl)c2)nc(O)c1[N+](=O)[O-]`, with 15.1%; and `COc1cccc(CN(CC(=O)NC2CCCC2)C(=O)Cn2nnc(-c3cccs3)n2)c1`, with -2.33%.
Then `CCOc1ccccc1-c1nc(CN(Cc2cnn(C)c2)C(C)C)c(C)o1`, with 2.34%.
Then `CNCc1ccccc1Sc1cc(O)ccc1O.O=C(O)/C=C\C(=O)O`, with 0.899%; and `CCN(CC)c1ccc(NC(=O)CCS(=O)(=O)c2ccc(Br)cc2)c(C)c1`, with 4.74%; and `Nc1ccccc1SC1CC(=O)N(c2ccccc2Cl)C1=O` (centres unmarked), with 15.2%.
For the compound `COc1ccc2nc(C)cc(SCC(=O)N/N=C/c3ccc(O)cc3O)c2c1`, the “hERG current change (%, negative = inhibition) at 1uM” value was 11.1%.
Regarding `C(=N\Nc1ccc2ccccc2n1)/c1ccc2c(c1)OCO2`, the “hERG current change (%, negative = inhibition) at 1uM” value is reported as 4.64%.
On to `O=C(O)/C=C/C(=O)NNc1ncnc2ccccc12`, for which the “hERG current change (%, negative = inhibition) at 1uM” value is given as 11.3%.
With `O=C(Nc1ccccc1N1CCCC1)C1CCN(C(=O)c2ccc(F)cc2)CC1`, the “hERG current change (%, negative = inhibition) at 1uM” value was -2.69%.
As for `O=C(O)C1C2C=CC(C2)C1C(=O)NC(c1ccccc1)c1ccccc1` (centres unmarked), the “hERG current change (%, negative = inhibition) at 1uM” value is listed as -6.68%.
To `CCNC(=S)N1CCN(C(=O)C(Cc2ccccc2)NC(C)=O)CC1` (centres unmarked) belongs 6.07%; to `N#C/C(C(=O)Nc1ccc(Cl)cc1)=C(/S)Nc1ccccc1`, 16.8%.
With `COC(=O)C1=C(C)N(Cc2ccccc2)C(=S)N[C@H]1c1cccc(F)c1`, the “hERG current change (%, negative = inhibition) at 1uM” value came to 3.22%.
With `COc1ccc(CCNc2ncnc3sc(C)cc23)cc1OC.Cl`, the “hERG current change (%, negative = inhibition) at 1uM” value is listed as 9.79%.
For `CC(=O)Nc1ccc(S(=O)(=O)NCCCCNS(=O)(=O)c2ccc(NC(C)=O)cc2)cc1`, the “hERG current change (%, negative = inhibition) at 1uM” value is reported as 30.1%.
`CC(C)(CN=C1NS(=O)(=O)c2ccccc21)CNC(=O)CN1C(=O)c2ccccc2C1=O`: the “hERG current change (%, negative = inhibition) at 1uM” value is given as -1.01%.
To `Cc1cc(O)ccc1N=Cc1c(C(F)(F)F)[nH][nH]c1=O` belongs 9.76%; to `CCC(NC(=O)c1cccc(Cn2cc([N+](=O)[O-])cn2)c1)c1ccc(C(C)C)cc1` (centres unmarked), 15.5%; to `CC(=O)c1ccc(S(=O)(=O)Nc2ccc(-c3ccc4nncn4n3)cc2)cc1`, 0.626%.
For `CC(C)(C)CC(C)(C)N1CNC(=S)NC1`, the “hERG current change (%, negative = inhibition) at 1uM” value was 10.7%.
Then `O=C(c1cccnc1)N1CCc2ccccc2C1`, with 10.6%.
With `CC(=O)c1ccc(N2CCN(CC(=O)N(CC(C)C)c3c(N)n(CC(C)C)c(=O)[nH]c3=O)CC2)cc1`, the “hERG current change (%, negative = inhibition) at 1uM” value was found to be 13.7%.
`O=C(/C=C/c1ccc(F)cc1)NC(=S)Nc1ccccc1`: the “hERG current change (%, negative = inhibition) at 1uM” value is -2.57%.
On to `CC1CN(c2ccc(C(=O)c3ccccc3C(=O)O)cc2[N+](=O)[O-])CC(C)O1` (centres unmarked), for which the “hERG current change (%, negative = inhibition) at 1uM” value was 8.41%.
Then `O=C(Nc1ccccc1N1CCOCC1)c1ccc2c(c1)OCO2`, with 2.69%; and `CC(NC(=O)NCc1cccnc1)(C(F)(F)F)C(F)(F)F`, with 16.6%.
For the compound `CCOC(=O)Nc1cccc(C(=O)O)c1`, the “hERG current change (%, negative = inhibition) at 1uM” value is recorded as 3.58%.
For the compound `CC(C)C[C@@H](CO)NC(=O)CC[C@H](NC(=O)OC(C)(C)C)C(=O)N(Cc1ccccc1)Cc1ccccc1`, the “hERG current change (%, negative = inhibition) at 1uM” value worked out at 16%.
Then `Nc1nnnn1/N=C/c1ccc(Cl)cc1`, with 6.7%.
Take `CCCC(NS(=O)(=O)c1ccc(OC)cc1)C(=O)O` (centres unmarked): the “hERG current change (%, negative = inhibition) at 1uM” value stood at 9.82%.
